Laboratory results from article PMC9911399, “Two distinct binding modes provide the RNA-binding protein RbFox with extraordinary sequence specificity”.
Numbering of substitutions follows the chain as printed; changes in the protein carry UniProt numbers. The list shows a part of the results.

T1: RBFOX1 RRM (Homo sapiens, UniProt Q9NWB1 109-208)
T1 sequence: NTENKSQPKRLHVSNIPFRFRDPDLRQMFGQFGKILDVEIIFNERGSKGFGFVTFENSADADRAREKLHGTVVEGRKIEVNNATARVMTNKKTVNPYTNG

B1: CUAAAAU (DNA:RNA)
RNA: GGGAGACCGGAAUUCAGAUUGUCCCUAAAAUUUAAAUCCCGUCGUAGCCACCA
DNA 1: CAATCTGAATTCCGGTCTCCC
DNA 2: TGGTGGCTACGACGGGATT
B2: AUUUCCC (DNA:RNA)
RNA: B1 RNA with C25A, A27U, A28U, A29C, A30C, U31C
DNA 1: CAATCTGAATTCCGGTCTCCC
DNA 2: TGGTGGCTACGACGGGATT
B3: UGCCAAC (DNA:RNA)
RNA: B1 RNA with C25U, U26G, A27C, A28C, U31C
DNA 1: CAATCTGAATTCCGGTCTCCC
DNA 2: TGGTGGCTACGACGGGATT
B4: UUUCGAA (DNA:RNA)
RNA: B1 RNA with C25U, A27U, A28C, A29G, U31A
DNA 1: CAATCTGAATTCCGGTCTCCC
DNA 2: TGGTGGCTACGACGGGATT
B5: GUUUCUU (DNA:RNA)
RNA: B1 RNA with C25G, A27U, A28U, A29C, A30U
DNA 1: CAATCTGAATTCCGGTCTCCC
DNA 2: TGGTGGCTACGACGGGATT
B6: CCUGUCU (DNA:RNA)
RNA: B1 RNA with U26C, A27U, A28G, A29U, A30C
DNA 1: CAATCTGAATTCCGGTCTCCC
DNA 2: TGGTGGCTACGACGGGATT
B7: CCGCUCC (DNA:RNA)
RNA: B1 RNA with U26C, A27G, A28C, A29U, A30C, U31C
DNA 1: CAATCTGAATTCCGGTCTCCC
DNA 2: TGGTGGCTACGACGGGATT
B8: UACGUUC (DNA:RNA)
RNA: GGGAGACCGGAAUUCAGAUUGUCCUACGUUCUUAAAUCCCGUCGUAGCCACCA
DNA 1: CAATCTGAATTCCGGTCTCCC
DNA 2: TGGTGGCTACGACGGGATT
B9: CUACCAA (DNA:RNA)
RNA: B1 RNA with A28C, A29C, U31A
DNA 1: CAATCTGAATTCCGGTCTCCC
DNA 2: TGGTGGCTACGACGGGATT

biological target: T1, RBFOX1 RRM; test: EMSA; HiTS-Eq, 1 nM pool, 10 min; buffer printed only for the single-RNA assays: 10 mM Tris pH 7.5, 150 mM NaCl, 3.4 mM EDTA, 0.001% NP-40, 30 C; details: tags: His6 N-terminal (pET28a); label: 5' 32P
Method in brief: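 Relative association constants, normalised to the cognate motif, were derived by comparing read counts of each RNA species with those of the control reaction. The RNA sequenced was the free fraction, separated by 8% native PAGE after a 10 min equilibration in 50 µL of 1 nM 5′-radiolabelled RNA (7 randomized nucleotides) with increasing concentrations of purified wild-type or mutant RbFox RRM.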

Row | Binder | binding signal
1 | B1 | 0.00148 KA relative to UGCAUGU
2 | B2 | 0.00575 KA relative to UGCAUGU
3 | B3 | 0.0122 KA relative to UGCAUGU
4 | B4 | 0.0132 KA relative to UGCAUGU
5 | B5 | 0.0153 KA relative to UGCAUGU
6 | B6 | 0.0102 KA relative to UGCAUGU
7 | B7 | 0.0062 KA relative to UGCAUGU
8 | B8 | 0.00951 KA relative to UGCAUGU
9 | B9 | 0.00122 KA relative to UGCAUGU
